Results reported in US9045531B2, “HLA-binding peptide, precursor thereof, and DNA fragment and recombinant vector coding for said HLA-binding peptide” (NEC CORPORATION, priority 2006, dated 2015).

Each sequence was assayed against HLA-A2 molecule (product of the HLA-A*0201 gene) (Homo sapiens, UniProt P04439, D140Y/D185E/D98H/E176V/E277Q/G131W/G231S/I119V/I121R/I166T/I218V/L300P/L318F/N151K/N90K/P208A/P217A/Q86G/Q94H/R138H/R169H/T345S) (assay: Experiment of binding peptide to HLA-A0201 molecule (JY cells, flow cytometry)).

Row | Sequence | pKd
1 | AQRAMMDQV [SEQ ID NO: 34] | 5.33
2 | FRLLQNSQV [SEQ ID NO: 24] | 4.45
3 | IFLARSALI [SEQ ID NO: 35] | 5.94
4 | SLPFERATI [SEQ ID NO: 22] | 5.24
5 | WMACHSAAF [SEQ ID NO: 30] | 5.79
6 | YLEEHPSAG [SEQ ID NO: 21] | 5.08
7 | YLEENPSAG [SEQ ID NO: 26] | 4.90

What follows are sequences tested against HLA-A2 molecule (product of the HLA-A*0206 gene) (Homo sapiens, UniProt P04439, D140Y/D185E/D98H/E176V/E277Q/F33Y/G131W/G231S/I119V/I121R/I166T/I218V/L300P/L318F/N151K/N90K/P208A/P217A/Q86G/Q94H/R138H/R169H/T345S) (assay: cell-based).

Row | Sequence | pKd
8 | AQRAMMDQV [SEQ ID NO: 40] | 5.64
9 | FQGRGVFEL [SEQ ID NO: 48] | 6.77
10 | FRLLQNSQV [SEQ ID NO: 47] | 4.21
11 | LIFLARSAL [SEQ ID NO: 52, LIFLARSAL] | 3.73
12 | LILYDKEEI [SEQ ID NO: 51] | 5.38
13 | LQNSQVFSL [SEQ ID NO: 49] | 5.78
14 | RLIQNSITI [SEQ ID NO: 45] | 4.43
15 | SALILRGSV [SEQ ID NO: 37] | 3.84

pKd: −log10 of the molar value. No end group written: not given here.
